Some of these densities may be calculated back from excess volumes.
Assay: xn = mol fraction of the nth substance listed
Settings: 100 kPa

CC[n+]1ccn(C)c1.F[B-](F)(F)F + CCC(=O)O
x1 = 1
Settings | mass density [kg/m3]
303.15 K | 1275
313.15 K | 1267
333.15 K | 1253

CCC(=O)O + CC[n+]1ccn(C)c1.F[B-](F)(F)F
mass density [kg/m3]
Settings | 293.15 K | 303.15 K | 313.15 K | 323.15 K | 333.15 K
x2 = 0 | 998 | 988 | – | 966 | 955
x2 = 0.0497 | 1001 | 991 | 982 | 973 | 965
x2 = 0.0888 | 1013 | 1006 | 1001 | 992 | 983
x2 = 0.1876 | – | 1075 | 1073 | 1071 | 1065
x2 = 0.2982 | 1148 | 1146 | – | 1131 | 1123
x2 = 0.3836 | 1176 | – | 1170 | – | 1158
x2 = 0.4908 | – | 1198 | – | 1188 | –
x2 = 0.5907 | – | 1217 | 1208 | – | 1198
x2 = 0.6891 | – | 1231 | 1225 | 1217 | 1210
x2 = 0.78 | 1252 | 1247 | 1239 | 1232 | 1225
x2 = 0.8899 | 1268 | 1261 | 1254 | – | 1239
x2 = 0.9453 | 1275 | 1269 | 1262 | – | –

— a compilation of properties of binary mixtures (doi:10.1021/acs.jced.0c00728)
